Laboratory results: PubChem BioAssay AID2675 (National Center for Advancing Translational Sciences (NCATS), 2010)
Values joined by “and” are separate entries in the source; they are usually repeats but may differ in a detail not shown here. Equal values may be shown once. Hit rate of the full screen: of about 280,000 compounds, about 100 (0.036%) were called active. The shares of active, inactive and inconclusive entries below differ from those in the screen. The call rests on the fitted dose curve; in most records, active means well fitted inhibition curve with a large enough effect in the signal ratio, with a control signal flat (not every such curve was filed as active); inconclusive means small, poorly fitted or top-dose-only effect, or effect the other way, or a change in a side signal; inactive means no such curve, though single readings can be large or run the other way; the % refers to the signal ratio. Potencies beside an inconclusive call are fits to weak or partial responses and may not hold up. “Side channel” marks fits to a control or component signal instead of the main read-out.

molecular target: Muscleblind-like protein 1 (Homo sapiens) (UniProt Q9NR56); assay: qHTS Assay for Inhibitors of MBNL1-poly(CUG) RNA binding; conditions: TR-FRET MBNL1-His/biotin-(CUG)12 binding, 665/545 ratio; activity change, negative = inhibition: at 57.5 µM (top of the series)
UniProt Q9NR56, sequence (Q9NR56 whole entry, looked up): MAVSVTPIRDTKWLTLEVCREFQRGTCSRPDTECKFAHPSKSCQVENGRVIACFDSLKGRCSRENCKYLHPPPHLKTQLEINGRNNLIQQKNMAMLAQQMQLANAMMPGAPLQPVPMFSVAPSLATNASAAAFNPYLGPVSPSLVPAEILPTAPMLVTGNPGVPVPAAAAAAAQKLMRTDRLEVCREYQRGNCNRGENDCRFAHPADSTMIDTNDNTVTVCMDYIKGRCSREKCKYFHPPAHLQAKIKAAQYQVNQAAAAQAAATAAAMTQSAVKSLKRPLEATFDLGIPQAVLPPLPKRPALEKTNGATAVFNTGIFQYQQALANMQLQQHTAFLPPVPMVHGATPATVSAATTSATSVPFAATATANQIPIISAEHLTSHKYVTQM
How it was run: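 Inhibition of protein-RNA binding appears as loss of TR-FRET between terbium anti-His antibody on MBNL1-His and streptavidin-XL665 on biotin-(CUG)12. Activity is normalized to buffer-only and uninhibited-complex controls.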
On the % scale 0 is the no-effect control and ±100 the full control effect; potency means the concentration at half of the fitted maximal effect; tags describe the fitted curve by direction and shape or compound fluorescence and quenching.

| Structure (SMILES) | activity change, negative = inhibition | Potency |
| --- | --- | --- |
| COCCNC(=O)c1c(NC(=O)c2ccco2)n(Cc2ccccc2)c2nc3ccccc3nc12 | inactive: 8.61% | – |
| O=C(COc1ccccc1)N1CCN(CCN2C(=O)c3cccc4cccc(c34)C2=O)CC1 | – | inconclusive: 2.82 µM [quencher, side channel, full curve, poor fit] |
| CN1C(=O)C(C2c3ccccc3C(=O)N2Cc2ccc([N+](=O)[O-])cc2)C(=O)N(C)C1=O (stereo not given) | – | inconclusive: 31.6 µM [quencher, side channel, single point] |
| CCn1nc(-c2ccccc2)nc2c(=O)n(C)c(=O)nc1-2 | – | inconclusive: 2.82 µM [quencher, side channel, full curve] |
| O=[N+]([O-])c1ccc(O[C@@H]2O[C@H](CO)[C@@H](O)[C@H](O)[C@H]2F)c([N+](=O)[O-])c1 | – | inconclusive: 8.91 µM [quencher, side channel, partial curve] |
| CCN(CC)c1ccc(/C=C2/C(=O)NC(=O)N(Cc3ccco3)C2=O)cc1 | inactive: 20.6% | – |
| Cc1ccc(N/N=C/c2c(O)n(-c3ccccc3)c(=O)[nH]c2=O)cc1 | – | inconclusive: 0.708 µM [quencher, full curve, poor fit] |
| O=C(c1cc2cc3ccc(Cl)cc3nc2o1)N1CCC2(CC1)OCCO2 | – | inconclusive: 2.82 µM [quencher, full curve] |
| CCNC(=O)O/N=C(\C)c1sc(-c2ccccc2)nc1C | – | inconclusive: 17.8 µM [quencher, side channel, partial curve] |
| Cc1ccc(NN=C2C(=O)OC(C)(C)OC2=O)c(C)c1 | – | inconclusive: 17.8 µM [quencher, partial curve] |
| Cc1ccccc1NP(=O)(Oc1ccccc1F)Oc1ccccc1F | – | inconclusive: 0.251 µM [fluorescent, side channel, full curve] |
| CN1CCN2c3ccc(N)cc3CC3(C(=O)NC(=O)NC3=O)C2C1 (stereo not given) | – | inconclusive: 50.1 µM [inhibitor, single point] |
| CCOP(=O)(OCC)c1ccc(OP(=O)(c2cccc([N+](=O)[O-])c2)c2cccc([N+](=O)[O-])c2)cc1 | – | inconclusive: 17.8 µM [quencher, side channel, partial curve] |
| COCCCNC(=O)Cn1cc(/C=C2\C(=O)NC(=O)N(c3ccccc3F)C2=O)c2ccccc21 | inactive: -2.22% | – |
| COc1ccccc1N1CCN(Cc2ccc(SC)cc2)CC1 | – | inconclusive: 100 µM [inhibitor, single point] |
| CCN(CC)c1ccc(/C=C2\C(=O)NC(=O)N(CC3CCCO3)C2=O)cc1 (stereo not given) | inactive: 17.4% | – |
| CCOC(=O)c1[nH]c(=O)c2ccccc2c1O | – | inconclusive: 39.8 µM [quencher, partial curve] |
| CNS(=O)(=O)c1ccc(-c2ccc(C=C3C(=O)NC(=O)NC3=O)o2)cc1 | – | inconclusive: 3.16 µM [quencher, side channel, single point] |
| CCCCN1CCC(O)(c2ccccc2)C(C(=O)c2ccccc2)C1 (stereo not given) | inactive: -0.23% | – |
| CCCCCn1c(=O)c(C(=O)NCc2ccncc2)c(O)c2ccccc21 | inactive: -9.07% | – |

| Structure (SMILES) | activity change, negative = inhibition | Potency |
| --- | --- | --- |
| CNC(=O)OCCc1n(C)cc[n+]1C | inactive: 3.57% | – |
| COc1cccc(N2CCN(Cc3cccc(Cl)c3)CC2)c1 | inactive: 2.08% | – |
| COc1cc2c(c(OC)c1OC)-c1ccc(O)c(=O)cc1C(NC(C)=O)CC2 (stereo not given) | – | inconclusive: 14.1 µM [quencher, side channel, partial curve] |
| Cn1c(=O)cc(OCC(=O)N2CCN(C3CCCCC3)CC2)c2ccccc21 | – | inconclusive: 2.82 µM [quencher, side channel, partial curve] |
| CN1C[C@H](CO)C[C@@H]2c3cccc4[nH]cc(c34)C[C@H]21 | – | inconclusive: 79.4 µM [inhibitor, single point] |
| O=[N+]([O-])c1ccc(NC2CCN(Cc3ccccc3)CC2)c2ccncc12 | – | inconclusive: 2.82 µM [quencher, full curve] |
| COc1ccc(N2C(=O)C(Cl)=C(N3CCN(Cc4ccccc4)CC3)C2=O)cc1 | – | inconclusive: 17.8 µM [quencher, side channel, partial curve] |
| COc1ccc(N=C2SCCCN2C)cc1 | – | inconclusive: 28.2 µM [quencher, side channel, single point] |
| COCCNC(=O)c1c(N)n(CCC(C)C)c2nc3ccccc3nc12 | – | inconclusive: 25.1 µM [quencher, side channel, single point] |
| O=C1Nc2ccccc2C1Cc1nc2ccccc2c(=O)n1-c1ccccc1 (stereo not given) | – | inconclusive: 15.8 µM [quencher, side channel, partial curve] |
| Cc1ccc(NC(=O)CN(C)CC(=O)Nc2cccc(F)c2)cc1[N+](=O)[O-] | – | inconclusive: 25.1 µM [quencher, side channel, partial curve] |
| CC/C(=N\N1CCN(C)CC1)c1c(O)[nH]c(=O)[nH]c1=O | – | inconclusive: 25.1 µM [fluorescent, side channel, partial curve] |
| O=C(Nc1ccccc1[N+](=O)[O-])c1ccc(S(=O)(=O)N2CCCC2)cc1 | – | inconclusive: 7.08 µM [quencher, side channel, partial curve] |
| CC(=O)OC[C@]12CCC(C)=C[C@H]1O[C@@H]1[C@H](O)[C@@H](OC(C)=O)[C@@]2(C)[C@]12CO2 | inactive: -1.48% | – |
| COP(=O)(OC)c1nc(-c2ccc([N+](=O)[O-])cc2)oc1N1CCCCC1 | – | inconclusive: 10 µM [quencher, side channel, partial curve] |
| O=C(c1cc(F)ccc1F)C1CCCN(Cc2cccc(Cl)c2)C1 (stereo not given) | inactive: 3.6% | – |
| Nc1ccccc1C(=O)OCC(=O)Nc1ccc(Br)cc1F | inactive: -14.8% | – |
| C/C(=N\OC(=O)NC(C)C)c1sc(-c2ccc(Cl)cc2)nc1C | – | inconclusive: 17.8 µM [quencher, side channel, partial curve] |
| COc1cc2c(c(OC)c1OC)-c1ccc(OC)c(=O)cc1[C@@H](NC(C)=O)CC2 | – | inconclusive: 15.8 µM [quencher, side channel, partial curve] and inconclusive: 12.6 µM [quencher, side channel, partial curve] |
| CC12CN3CC(c4ccccc4)(CN(C1)C31CCCCC1)C2=O | inactive: 0.914% | – |

| Structure (SMILES) | activity change, negative = inhibition | Potency |
| --- | --- | --- |
| COc1ccccc1N1C(=O)NC(=O)/C(=C/c2ccc([N+](=O)[O-])s2)C1=O | – | inconclusive: 20 µM [quencher, side channel, partial curve] |
| CCOC(=O)c1c(/N=C/C2C(=O)NC(=O)NC2=O)sc2c1CCC2 | inactive: -1.43% | – |
| CC[C@@H](CO)NC(=O)[C@@H]1C=C2c3cccc4c3c(cn4C)C[C@H]2N(C)C1 | – | inconclusive: 5.01 µM [quencher, side channel, partial curve] and inconclusive: 7.08 µM [quencher, side channel, partial curve] |
| CC1=Nc2cc(C(=O)N3CCC4(CC3)OCCO4)ccc2Sc2ccc(Cl)cc21 | inactive: -5.18% | – |
| CCOc1ccc(CN(CCCl)CCCl)cc1C(=O)OC | – | inconclusive: 79.4 µM [inhibitor, partial curve] |
| CC(C)[C@@]1(NC(=O)[C@@H]2C=C3c4cccc5[nH]cc(c45)C[C@H]3N(C)C2)O[C@@]2(O)[C@@H]3CCCN3C(=O)[C@H](Cc3ccccc3)N2C1=O | – | inconclusive: 31.6 µM [quencher, side channel, single point] |
| O=C(O)c1ccc2c(c1)C1C(Cl)C(Sc3ccccc3[N+](=O)[O-])CC1C(c1cccc([N+](=O)[O-])c1)N2 (stereo not given) | – | inconclusive: 39.8 µM [quencher, side channel, single point] |
| Cc1[nH]n(-c2ccccc2)c(=O)c1C(c1cccc([N+](=O)[O-])c1O)c1c(C)[nH]n(-c2ccccc2)c1=O | – | inconclusive: 31.6 µM [quencher, side channel, partial curve] |
| O=C(c1cccn2c(=O)c3ccccc3nc12)N1CCC2(CC1)OCCO2 | – | inconclusive: 14.1 µM [quencher, side channel, partial curve] |
| COc1ccc(-c2cc(=NCCC(=O)O)c3cc(C)ccc3o2)cc1 | – | inconclusive: 7.94 µM [quencher, side channel, partial curve] |
| CN1/C(=C\C=C\C2=[N+](C)c3ccc4ccccc4c3C2(C)C)C(C)(C)c2ccccc21 | – | inconclusive: 8.91 µM [quencher, side channel, partial curve] |
| CC(Cc1ccccc1Sc1ccccc1)N(C)C (stereo not given) | inactive: -22.1% | – |
| OC(c1ccccc1)(c1ccccc1)C1CCCN1 (stereo not given) | – | inconclusive: 14.1 µM [quencher, side channel, partial curve] |
| O=[N+]([O-])c1cc([As](=O)(O)c2ccc(O)c([N+](=O)[O-])c2)ccc1O | – | inconclusive: 15.8 µM [quencher, side channel, partial curve] |
| Cc1ccc(/C=C2\C(=O)NC(=S)N(c3ccccc3F)C2=O)s1 | inactive: 17.4% | – |
| COc1ccc2c(c1OC)CN1CCc3cc4c(cc3C1C2)OCO4 (stereo not given) | inactive: 1.8% | – |
| COc1ccc(CN2CCN(Cc3ccccc3F)CC2)cc1 | inactive: -5.77% | – |
| COc1ccccc1C(=O)C1CCCN(Cc2cnc(C)s2)C1 (stereo not given) | inactive: 0.632% | – |
| CCn1ncc(-c2ccnc3cc(C(=O)O)nn23)c1C | – | inconclusive: 31.6 µM [quencher, side channel, single point] |
| CCCCCCCC(=O)NC(Oc1ccccc1[N+](=O)[O-])C(Cl)(Cl)Cl (stereo not given) | – | inconclusive: 20 µM [quencher, side channel, partial curve] |
